Among all 360,000 compounds or so, about 16,000 (4.4%) were called active. Inconclusive means that the source gave no clear call. Such entries were picked first, then a sample of the others. Calls come from the whole dose curve; as a rule, active = well fitted inhibition curve with a large enough effect; inconclusive = small, poorly fitted or top-dose-only effect; inactive = no such curve, though single readings can be large or run the other way. Potencies of inconclusive entries are doubtful fits and often do not repeat.
Biological target: Bromodomain adjacent to zinc finger domain protein 2B (Homo sapiens) (UniProt Q9UIF8)
Chain of UniProt Q9UIF8 (Q9UIF8 whole entry, looked up, the tested form may be a part): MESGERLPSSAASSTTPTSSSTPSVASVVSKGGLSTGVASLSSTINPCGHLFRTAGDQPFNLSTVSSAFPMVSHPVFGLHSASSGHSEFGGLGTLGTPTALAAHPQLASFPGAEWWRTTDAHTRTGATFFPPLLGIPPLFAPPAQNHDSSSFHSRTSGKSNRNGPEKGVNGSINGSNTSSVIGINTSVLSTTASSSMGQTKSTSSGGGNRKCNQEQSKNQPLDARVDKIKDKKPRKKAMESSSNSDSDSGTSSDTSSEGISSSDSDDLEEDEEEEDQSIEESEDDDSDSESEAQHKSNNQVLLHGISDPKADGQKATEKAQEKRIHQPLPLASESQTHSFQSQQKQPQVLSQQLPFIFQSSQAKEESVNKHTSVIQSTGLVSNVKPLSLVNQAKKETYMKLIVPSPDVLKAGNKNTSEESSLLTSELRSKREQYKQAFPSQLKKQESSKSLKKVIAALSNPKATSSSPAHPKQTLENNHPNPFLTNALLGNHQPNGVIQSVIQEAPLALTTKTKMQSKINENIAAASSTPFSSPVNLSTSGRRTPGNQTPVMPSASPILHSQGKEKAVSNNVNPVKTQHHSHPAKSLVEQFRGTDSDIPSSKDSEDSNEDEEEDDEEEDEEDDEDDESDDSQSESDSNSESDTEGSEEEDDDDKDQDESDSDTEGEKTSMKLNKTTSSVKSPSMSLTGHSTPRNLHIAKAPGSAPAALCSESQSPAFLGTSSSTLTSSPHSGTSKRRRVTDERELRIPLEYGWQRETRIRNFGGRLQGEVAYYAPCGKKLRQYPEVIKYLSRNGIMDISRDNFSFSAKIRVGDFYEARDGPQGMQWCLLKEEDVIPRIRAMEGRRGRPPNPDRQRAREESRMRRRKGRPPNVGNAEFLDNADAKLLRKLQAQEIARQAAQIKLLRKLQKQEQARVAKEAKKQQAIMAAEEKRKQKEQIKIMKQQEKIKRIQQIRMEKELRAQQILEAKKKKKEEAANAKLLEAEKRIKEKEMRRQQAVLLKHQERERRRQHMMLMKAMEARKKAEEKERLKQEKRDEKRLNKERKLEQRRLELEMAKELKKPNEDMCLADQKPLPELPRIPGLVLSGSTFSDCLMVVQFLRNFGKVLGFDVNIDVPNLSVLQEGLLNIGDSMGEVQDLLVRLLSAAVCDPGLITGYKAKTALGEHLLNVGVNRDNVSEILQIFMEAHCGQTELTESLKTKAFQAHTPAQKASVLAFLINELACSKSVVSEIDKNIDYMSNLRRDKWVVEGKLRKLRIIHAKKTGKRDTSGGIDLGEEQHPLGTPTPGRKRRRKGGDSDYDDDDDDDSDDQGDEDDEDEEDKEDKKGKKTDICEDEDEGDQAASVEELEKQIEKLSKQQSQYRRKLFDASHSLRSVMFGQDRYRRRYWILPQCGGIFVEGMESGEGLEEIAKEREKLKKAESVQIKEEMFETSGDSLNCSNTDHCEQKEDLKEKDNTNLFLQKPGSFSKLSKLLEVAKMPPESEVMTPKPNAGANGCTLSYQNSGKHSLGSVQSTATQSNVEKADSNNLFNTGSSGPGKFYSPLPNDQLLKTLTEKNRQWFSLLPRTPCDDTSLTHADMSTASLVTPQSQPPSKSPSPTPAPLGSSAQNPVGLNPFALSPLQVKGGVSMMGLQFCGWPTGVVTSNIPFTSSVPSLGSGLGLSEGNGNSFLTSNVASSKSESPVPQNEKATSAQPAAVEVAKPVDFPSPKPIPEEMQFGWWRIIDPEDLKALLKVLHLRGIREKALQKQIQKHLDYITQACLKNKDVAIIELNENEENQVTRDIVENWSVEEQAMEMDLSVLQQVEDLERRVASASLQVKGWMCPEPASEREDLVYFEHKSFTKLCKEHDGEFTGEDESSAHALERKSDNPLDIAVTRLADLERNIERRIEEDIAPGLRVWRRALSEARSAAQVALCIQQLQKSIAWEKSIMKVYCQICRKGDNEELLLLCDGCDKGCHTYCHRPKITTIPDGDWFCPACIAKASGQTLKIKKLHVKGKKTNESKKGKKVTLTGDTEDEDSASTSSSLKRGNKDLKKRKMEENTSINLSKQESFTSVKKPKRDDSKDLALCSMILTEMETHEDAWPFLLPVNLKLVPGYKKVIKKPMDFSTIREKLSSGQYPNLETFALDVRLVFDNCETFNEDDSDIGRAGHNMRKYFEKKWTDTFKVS
Assay: qHTS Assay for Inhibitors of BAZ2B; note: nearly all actives have a fitted effect of over 60% in size
Settings: AlphaScreen BAZ2B-H3K14Ac peptide displacement; activity change, negative = inhibition: at 114 µM (top of the series)
Summary of the method: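 Compounds, titrated to a top concentration of 110 uM, were incubated 30 min at room temperature with preformed BAZ2B/acetyl-K14 H3 peptide complex (50 nM each). Proximity signal was measured by AlphaScreen after 20 min with beads.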
% is set by controls: 0 for no effect and ±100 for the full control effect; potency is the fitted concentration of half-maximal effect; tags give direction and shape of the fitted curve.

Row | SMILES | Potency | activity change, negative = inhibition
1 | COc1ccc(CNC2CCSc3ccccc32)cc1OC (stereo unspecified) | active: 50.1 µM | –
2 | Cc1c(N2C(=O)/C(=C/C3CC=CCC3)SC2=S)c(=O)n(-c2ccccc2)n1C (stereo unspecified) | inconclusive: 89.1 µM [inhibitor, single point] | –
3 | O=C(O)c1ccc(OCCCCCCOC2CCCCO2)cc1 (stereo unspecified) | – | inactive: -2.38%
4 | CC(C)c1ccc(NC2CCCN(C(=O)CC3CCCC3)C2)cc1 (stereo unspecified) | inconclusive: 35.5 µM [inhibitor, partial curve] | –
5 | COC(=O)c1cc(NC(=O)c2ccc3c(c2)NC(=O)c2ccccc2S3)cc(C(=O)OC)c1 | inconclusive: 89.1 µM [inhibitor, single point] | –
6 | COc1ccc(-c2nc3c(c(SCC(=O)N4CCCCC4)n2)Cc2c(CO)cnc(C)c2O3)cc1 | inconclusive: 31.6 µM [inhibitor, full curve, poor fit] | –
7 | O=C1c2ccccc2NC(c2ccccc2O)N1c1ccc(F)cc1 (stereo unspecified) | – | inactive: 6.01%
8 | O=C(Nc1sc2c(c1C(=O)O)CCC2)C(=O)N1CCOCC1 | active: 50.1 µM | –
9 | O=C(Nc1ccc(N2CCCCC2)cc1)C1CCCN1S(=O)(=O)c1ccc(F)cc1 (stereo unspecified) | inconclusive: 50.1 µM [inhibitor, partial curve] | –
10 | CC1Cc2ccccc2N1CC(=O)Nc1ccc2c(c1)OCCCO2 (stereo unspecified) | inconclusive: 89.1 µM [inhibitor, single point] | –
11 | CCOc1cccc(-c2nnc3sc(-c4cc(OC)c(OC)c(OC)c4)nn23)c1 | – | inactive: 10.4%
12 | O=C(O)CCCC(=O)Nc1ccc(Sc2ccc([N+](=O)[O-])cc2)cc1 | inconclusive: 79.4 µM [inhibitor, partial curve] | –
13 | CCOC(=O)Nc1ccc2c(c1)N(C(=O)CN1CCN(C)CC1)c1ccccc1S2 | inconclusive: 100 µM [inhibitor, single point] | –
14 | O=C(CC(=O)c1ccccc1O)c1ccc(F)cc1 | inconclusive: 7.08 µM [inhibitor, single point] | –
15 | O=C(CSc1ncccc1-c1nc2ccccc2[nH]1)NCc1ccco1 | active: 56.2 µM | –
16 | O=C(O)C1C2C=CC(C2)C1C(=O)Nc1ccccc1Br (stereo unspecified) | inconclusive: 89.1 µM [inhibitor, single point] | –
17 | O=C(O)c1ccc(S(=O)(=O)c2ccc3c(c2)C(=O)N(NC(=O)c2ccc(O)cc2)C3=O)cc1 | inconclusive: 89.1 µM [inhibitor, single point] | –
18 | Cc1ccc(C)c(NC(=O)CN(C)C(C)C(=O)N2CC(C)CC(C)C2)c1 (stereo unspecified) | – | inactive: -4.6%
19 | CCCCS(=O)(=O)c1nc(-c2ccc(Br)cc2)cc(-c2ccccc2)c1C#N | – | inactive: 41.2%
20 | Cc1ccccc1-c1cc2nc(C)c(C)c(=O)n2[nH]1 | inconclusive: 89.1 µM [inhibitor, single point] | –
21 | COc1ccc(N=Nc2ccc(O)c3ncccc23)cc1 | active: 6.31 µM | –
22 | CCc1ccc2oc(-c3cc(NC(=O)c4cc([N+](=O)[O-])ccc4N4CCOCC4)ccc3Cl)nc2c1 | inconclusive: 5.01 µM [inhibitor, full curve] | –
23 | CCOc1ccc(C(=O)/C=C/Nc2ccc(S(=O)(=O)Nc3cc(C)nc(C)n3)cc2)cc1 | inconclusive: 89.1 µM [inhibitor, single point] | –
24 | COc1ccc(NC(=O)CSc2nc(-c3ccco3)cc(C(F)(F)F)n2)cc1Cl | – | inactive: -4.72%

Row | SMILES | Potency | activity change, negative = inhibition
25 | COc1ccc(/C(C)=N/NC(=S)NCCc2ccccc2)cc1 | active: 25.1 µM | –
26 | COc1cccc(C(c2nnnn2Cc2ccccc2)N2CCN(C3CCCC3)CC2)c1OC (stereo unspecified) | inconclusive: 89.1 µM [inhibitor, single point] | –
27 | O=C(NCC1CCCO1)NC1(C(F)(F)F)Oc2ccccc2O1 (stereo unspecified) | – | inactive: 8.08%
28 | CSc1oc(-c2ccco2)nc1S(=O)(=O)c1ccc(Br)cc1 | – | inactive: -32%
29 | CC(=O)Nc1sc2c(c1CN1CCN(c3ccccn3)CC1)CCCC2 | – | inconclusive: -44% [inhibitor]
30 | Cc1cccc(NC(=S)NC(=O)c2cc(-c3ccccc3)nc3ccccc23)c1 | – | inactive: -38.6%
31 | Cc1ccc(C(=O)/C=C/c2ccc(-c3ccccc3[N+](=O)[O-])o2)cc1 | active: 25.1 µM | –
32 | Cc1ccc(CN2C(=O)c3ccccc3Sc3ccc(C(=O)NCCCN4CCOCC4)cc32)cc1 | inconclusive: 79.4 µM [inhibitor, single point] | –
33 | COc1ccccc1-c1nnc(SCC(=O)c2ccc(F)cc2)n1-c1ccccc1 | inconclusive: 79.4 µM [inhibitor, single point] | –
34 | CN1CCN(C(=O)c2ccc(C(F)(F)F)cc2)CC1 | inconclusive: 89.1 µM [inhibitor, single point] | –
35 | CC1(C)CC(=O)c2cc(OCC(=O)NCCN3CCCc4ccccc43)ccc2O1 | – | inactive: -30.1%
36 | COc1cccc(OCCOc2ccc(/C=C3\C(=N)N4N=C(S(C)(=O)=O)SC4=NC3=O)cc2OC)c1 | active: 79.4 µM | –
37 | Nc1nc(N)c2ncc(C(=O)CCc3ccccc3)nc2n1 | inconclusive: 79.4 µM [inhibitor, partial curve] | –
38 | COc1ccccc1CCC(=O)OCC(=O)N1c2ccccc2NC(=O)C1(C)C | inconclusive: 56.2 µM [inhibitor, partial curve] | –
39 | COc1ccccc1OC(=O)CCc1nc2ccccc2s1 | inconclusive: 7.08 µM [inhibitor, full curve, poor fit] | –
40 | CCOc1cc(NS(=O)(=O)c2ccccc2)c(OCC)cc1NC(=O)c1ccco1 | inconclusive: 89.1 µM [inhibitor, single point] | –
41 | Cc1ccccc1C(=O)Nc1ccc(N2CCCC2)cc1 | inconclusive: 50.1 µM [inhibitor, partial curve] | –
42 | Cc1ccc(/C=C2/NC(=O)N(c3ccccc3)C2=O)o1 | active: 56.2 µM | –
43 | Cc1cc(C)cc(NC(=O)CCn2cnc3cc(C)c(C)cc32)c1 | – | inactive: -17%
44 | O=C(O)c1cnc(-c2ccccc2)nc1Sc1ccccc1Cl | inconclusive: 89.1 µM [inhibitor, single point] | –
45 | COC1CCCCC1Nc1cc(C)cc(C)c1 (stereo unspecified) | active: 35.5 µM | –
46 | COc1cc(-c2nc(S(=O)(=O)c3ccc(C)cc3)c(N(C)C)o2)cc(OC)c1OC | inconclusive: 89.1 µM [inhibitor, single point] | –
47 | CCCCOCCCNC(=O)CN1C(=O)c2ccccc2C1=O | inconclusive: 89.1 µM [inhibitor, single point] | –
48 | CCNC(=O)NC(=O)COC(=O)CCCc1nc2ccccc2s1 | – | inactive: -32.7%

Row | SMILES | Potency | activity change, negative = inhibition
49 | Cc1c(C(=O)N2CCC(C)CC2)c(S(=O)(=O)N2CCN(c3cccc(Cl)c3)CC2)c(C)n1C | inconclusive: 50.1 µM [inhibitor, partial curve] | –
50 | Cc1ccc(Cl)cc1NC(=O)CN1CCN(S(=O)(=O)N2CCC(C)CC2)CC1 | – | inactive: -2.18%
51 | NC(CSCc1ccccc1Cl)C(=O)O (stereo unspecified) | inconclusive: 89.1 µM [inhibitor, single point] | –
52 | C=CCn1cnc2c(nnn2-c2ccc(Cl)cc2)c1=O | inconclusive: 89.1 µM [inhibitor, single point] | –
53 | CCCC[n+]1c2ccccc2cc2ccccc21 | active: 56.2 µM | –
54 | O=[N+]([O-])c1cc(S(=O)(=O)N2CCCC2)ccc1N/N=C1/CCCc2ccccc21 | active: 3.55 µM | –
55 | CCn1nnnc1NCc1cccn1C | inconclusive: 89.1 µM [inhibitor, single point] | –
56 | CCS(=O)(=O)N1CCN(c2ccc([N+](=O)[O-])c(NC(C)c3ccccc3)c2)CC1 (stereo unspecified) | inconclusive: 35.5 µM [inhibitor, partial curve] | –
57 | COc1cc([N+](=O)[O-])cc(/C=N/NC(=O)CSc2ccccn2)c1O | inconclusive: 79.4 µM [inhibitor, single point] | –
58 | CCOC(=O)N1CCN(c2c(-c3ccc(C(C)C)cc3)c(=O)c2=O)CC1 | inconclusive: 89.1 µM [inhibitor, single point] | –
59 | CC(=O)Nc1ccc(S(=O)(=O)N2CCC(N3CCCC3)CC2)cc1 | inconclusive: 79.4 µM [inhibitor, partial curve] | –
60 | COc1ccccc1-n1cnc2c(c1=O)c1nc3ccccc3nc1n2-c1ccc(C)c(C)c1 | active: 56.2 µM | –
61 | Cc1ccc(NCCC(=O)c2ccc(Cl)c(Cl)c2)cc1 | inconclusive: 89.1 µM [inhibitor, single point] | –
62 | CCCCC1=CC2=C(c3ccco3)C(=O)C(C)(OC(=O)c3ccc(OC)cc3)C(=O)C2=CN1CCN1CCOCC1 (stereo unspecified) | – | inactive: -37.6%
63 | CC(=O)c1sc(NC(=O)c2cccc(C)c2)nc1C | inconclusive: 89.1 µM [inhibitor, single point] | –
64 | O=C(N/N=C/c1ccco1)c1cccc(S(=O)(=O)Nc2ccccc2Cl)c1 | inconclusive: 79.4 µM [inhibitor, single point] | –
65 | CC(=C/c1ccc(C(C)C)cc1)/C=N/NC(=O)Cn1nnnc1N | inconclusive: 70.8 µM [inhibitor, partial curve, poor fit] | –
66 | CC(C)(C)c1ccc(C(=O)N/C(=C\c2cccs2)C(=O)NCc2ccco2)cc1 | inconclusive: 39.8 µM [inhibitor, full curve, poor fit] | –
67 | O=C(CCCN1C(=O)/C(=C\c2cccs2)SC1=S)Nc1ccccn1 | inconclusive: 11.2 µM [inhibitor, full curve] | –
68 | O=C(COC(=O)CCCC1=NS(=O)(=O)c2ccccc2N1)Nc1ccccc1 | – | inactive: -11.7%
69 | Cc1ccc(O)c(C2=Nc3ccccc3N=C(c3cccc(F)c3)C2)c1 | – | inactive: -31.6%
70 | CCN(CC)c1ccc(NC(=O)C2CCCC2)cc1 | inconclusive: 79.4 µM [inhibitor, single point] | –
71 | O=C(O)CCn1cnc2ccccc2c1=O | inconclusive: 89.1 µM [inhibitor, single point] | –

— PubChem BioAssay AID504333 (National Center for Advancing Translational Sciences (NCATS), 2011)
